About 220 (0.56%) of roughly 39,000 compounds showed activity. This is one part of the list.
These compounds were tested on Escherichia coli K-12 BW25113 (assay: relative growth (OD600 normalised to plate interquartile mean) (fraction); higher = less growth inhibition, active = 0.2 or less). Settings: 50 µM; LB; incubation time: overnight (16-24 h).
In the case of Cc1ccnc(NS(=O)(=O)c2ccc(N)cc2)n1, the relative growth is reported as inactive: 0.826. C[C@H](CO)N1C[C@H](C)[C@@H](CN(C)C(=O)NC2CCCCC2)Oc2ccc(NC(=O)Cn3cnnn3)cc2CC1=O was tested, and the relative growth was inactive: 1.01. COc1ccc(S(=O)(=O)Nc2ccc3c(c2)[C@H]2C[C@H](CC(=O)NCC4CC4)O[C@H](CO)[C@H]2O3)cc1 was tested, and the relative growth was inactive: 0.995. C[C@@H]1CN([C@@H](C)CO)C(=O)Cc2cc(NS(=O)(=O)c3ccc(Cl)cc3)ccc2O[C@@H]1CN(C)Cc1ccc(-c2ccccc2)cc1 was tested, and the relative growth was inactive: 1. With C[C@H]1CN([C@@H](C)CO)C(=O)Cc2cc(NC(=O)Cc3cn(C)c4ccccc34)ccc2O[C@@H]1CN(C)CC1CCCCC1 the relative growth was inactive: 1.03. With C[C@@H]1CCn2cc(nn2)COC[C@H](Cc2ccccc2)NC(=O)[C@H](C)CCn2cc(nn2)COC[C@H](Cc2ccccc2)NC1=O the relative growth was inactive: 0.986. With CN1CCN([C@@H]2CCN[C@H]2Cc2cnn(C)c2)CC1 the relative growth was inactive: 1. COc1cc(OC)cc(-c2ccc(-c3ccc([C@H]4CC(=O)C[C@@H](c5ccccc5)C45C(=O)OC(C)(C)OC5=O)cc3)cc2OC)c1 was tested, and the relative growth was inactive: 0.996. With COc1ccc(S(=O)(=O)Nc2ccc3c(c2)CC(=O)N([C@H](C)CO)C[C@@H](C)[C@H](CN(C)Cc2ccncc2)O3)cc1 the relative growth was inactive: 0.941. With Cc1n[nH]c(C)c1S(=O)(=O)N1CCCC1 the relative growth was inactive: 0.978. In the case of Cl.Cl.O=C(O)COCCN1CCN(C(c2ccccc2)c2ccc(Cl)cc2)CC1 (stereo not drawn), the relative growth is reported as inactive: 0.971. C[C@@H]1CCCCO[C@@H](CN(C)S(=O)(=O)c2ccc(Cl)cc2)[C@@H](C)CN([C@H](C)CO)C(=O)c2cc(NS(=O)(=O)c3ccc(F)cc3)ccc2O1 was tested, and the relative growth was inactive: 0.981. With C[C@H]1CN([C@@H](C)CO)C(=O)c2cc(NC(=O)C3CCCCC3)ccc2O[C@@H]1CN(C)S(=O)(=O)c1cn(C)cn1 the relative growth was inactive: 1.01. Cc1ccc(S(=O)(=O)Nc2cccc3c2O[C@H](CN(C)C(=O)Nc2cccc4ccccc24)[C@@H](C)CN([C@H](C)CO)C3=O)cc1 was tested, and the relative growth was inactive: 0.991. With COc1ccccc1CNC(=O)C[C@@H]1C[C@@H]2c3cc(NC(=O)Cc4ccncc4)ccc3O[C@@H]2[C@@H](CO)O1 the relative growth was inactive: 0.978. Cc1noc(C)c1NC(=O)N(C)C[C@H]1OCCCC[C@@H](C)Oc2ccc(NS(=O)(=O)c3ccccc3)cc2C(=O)N([C@H](C)CO)C[C@@H]1C was tested, and the relative growth was inactive: 0.973. For Cn1c(=O)c2c(nc(N3CCNCC3)n2CC(=O)c2ccc(Cl)cc2)n(C)c1=O, the relative growth was inactive: 0.981. In the case of C[C@H](CO)N1C[C@H](C)[C@H](CN(C)S(C)(=O)=O)OCCCC[C@H](C)Oc2ccc(NS(=O)(=O)c3cn(C)cn3)cc2C1=O, the relative growth is reported as inactive: 0.982. COc1ccc(C#Cc2ccc3c(c2)O[C@@H](CN(C)C(C)=O)[C@@H](C)CN([C@H](C)CO)S3(=O)=O)cc1 was tested, and the relative growth was inactive: 1.02. In the case of COc1ccc(S(=O)(=O)Nc2ccc3c(c2)C(=O)N([C@@H](C)CO)C[C@H](C)[C@@H](CN(C)C(=O)Nc2cccc4ccccc24)O3)cc1, the relative growth is reported as inactive: 1. With CON=C(C(=O)NC1C(=O)N2C(C(=O)O)=C(C[N+]3(C)CCCC3)CSC12)c1csc(N)n1.[Cl-] (stereo not drawn) the relative growth was active: 0.0437. With C[C@@H]1CN([C@H](C)CO)C(=O)c2ccccc2-c2ccccc2CO[C@H]1CN(C)C(=O)c1cc(Cl)cc(Cl)c1 the relative growth was inactive: 0.971. With C[C@@H]1CN([C@@H](C)CO)C(=O)c2cc(NC(=O)Nc3ccc4c(c3)OCO4)ccc2O[C@@H](C)CCCCO[C@@H]1CN(C)S(=O)(=O)c1ccc(F)cc1 the relative growth was inactive: 1.01. In the case of Nc1ccn(C[C@@H](CO)OCP(=O)(O)O)c(=O)n1, the relative growth is reported as inactive: 0.985. In the case of COc1ccc(NC(=O)N(C)C[C@@H]2OCCCC[C@H](C)Oc3ccc(NS(=O)(=O)c4ccccc4)cc3C(=O)N([C@H](C)CO)C[C@@H]2C)cc1, the relative growth is reported as inactive: 0.971. In the case of Cc1ccc(S(=O)(=O)N(C)C[C@@H]2OCCCC[C@@H](C)Oc3ccc(NC(=O)Nc4c(C)noc4C)cc3C(=O)N([C@H](C)CO)C[C@H]2C)cc1, the relative growth is reported as inactive: 0.99. With CCO[C@H]1OC(C(=O)N2CCN(Cc3ccccc3)CC2)=C[C@@H](C)[C@@H]1CCCOC(=O)NCCCCCC(=O)NO the relative growth was inactive: 1.01. With Cc1noc(C)c1NC(=O)Nc1cccc2c1O[C@H](CN(C)S(=O)(=O)c1cn(C)cn1)[C@@H](C)CN([C@H](C)CO)C2=O the relative growth was inactive: 0.999. For C[C@@H]1CN([C@@H](C)CO)C(=O)c2cccc(NC(=O)c3nc4ccccc4s3)c2O[C@H]1CN(C)Cc1ccc(C(F)(F)F)cc1, the relative growth was inactive: 0.891. In the case of C[C@H](CO)N1C[C@H](C)[C@@H](CN(C)Cc2ccc(-c3ccccc3)cc2)Oc2ccc(NC(=O)Nc3ccc(C(F)(F)F)cc3)cc2CC1=O, the relative growth is reported as inactive: 1.03. Cc1noc(C)c1NC(=O)N(C)C[C@@H]1Oc2c(NS(=O)(=O)c3ccccc3)cccc2C(=O)N([C@H](C)CO)C[C@H]1C was tested, and the relative growth was inactive: 0.86. For [O-][n+]1cccc(CO)c1, the relative growth was inactive: 1.01. With COC(=O)[C@H](Cc1ccccc1)N1CC2=C[C@@H](C3CC3)n3c(=O)n(C)c(=O)n3[C@H]2[C@@H]1[C@@H](O)CCn1cc(C(=O)NO)nn1 the relative growth was inactive: 0.997. In the case of C[C@@H]1CN([C@@H](C)CO)C(=O)c2c(c3ccccc3n2C)-c2ccccc2CO[C@@H]1CN(C)C(=O)CCC(F)(F)F, the relative growth is reported as inactive: 1. In the case of CNC[C@@H]1OCCCC[C@@H](C)Oc2ccc(NC(=O)Nc3ccc(C(F)(F)F)cc3)cc2C(=O)N([C@H](C)CO)C[C@@H]1C, the relative growth is reported as inactive: 0.926. In the case of COc1ccc(CN(C)C[C@@H]2Oc3c(NS(=O)(=O)c4cn(C)cn4)cccc3C(=O)N([C@@H](C)CO)C[C@@H]2C)cc1, the relative growth is reported as inactive: 1.01. For Cc1noc(C)c1S(=O)(=O)N(C)C[C@@H]1Oc2ccc(NC(=O)CCC(F)(F)F)cc2CC(=O)N([C@@H](C)CO)C[C@H]1C, the relative growth was inactive: 1. For C[C@@H]1CN([C@@H](C)CO)C(=O)Cc2cc(NC(=O)c3ccncc3)ccc2O[C@@H]1CN(C)Cc1ccc(C(=O)O)cc1, the relative growth was inactive: 0.989.
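Note: static incubation at 37 °C against the wild-type strain, values averaged over two biological replicates.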
